The record followed here is PubChem BioAssay AID2202238 (Ras Initiative Chemistry Research Team, Frederick National …, 2025).

The other results are listed elsewhere or left out. Shown are side measurements of this screen, not its main read-out; they come without a call.

The target in the assay is GTPase KRas (Homo sapiens) (UniProt P01116). The experiment in a line: Covalent labelling of cysteine mutants by fragments, read by mass spectrometry (AID 2202238). The following applies: KRAS G12D cysteine mutants, disulfide tethering, MALDI-TOF labeling, stronger effect = higher value, fragment at 500 µM. More on the design: protein at 5 µM with 500 µM competing thiol for 1.5 h.

[1] abbreviates: measured here: G75C mutant labeling.
Where [2] appears, read: measured here: H94C mutant labeling.
[3] abbreviates: measured here: I36C mutant labeling.
The mark [4] stands for this setting: measured here: L120C mutant labeling.
The mark [5] stands for this setting: measured here: M67C mutant labeling.
The mark [6] stands for this setting: measured here: M72C mutant labeling.
The mark [7] stands for this setting: measured here: N86C mutant labeling.
Where [8] appears, read: measured here: P121C mutant labeling.
Setting [9] is: measured here: S122C mutant labeling.
The mark [10] stands for this setting: measured here: S136C mutant labeling.
Setting [11] is: measured here: G60C mutant labeling.
The mark [12] stands for this setting: measured here: N26C mutant labeling.

Sequence of UniProt P01116 (P01116 whole entry, looked up, the tested form may be a part): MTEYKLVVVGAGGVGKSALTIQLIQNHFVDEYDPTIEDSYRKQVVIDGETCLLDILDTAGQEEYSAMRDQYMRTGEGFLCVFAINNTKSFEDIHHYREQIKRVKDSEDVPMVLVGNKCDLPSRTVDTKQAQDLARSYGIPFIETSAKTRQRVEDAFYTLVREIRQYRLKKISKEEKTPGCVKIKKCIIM

For the molecule `O=C(CCS)N1CCN(c2cccs2)C(=O)C1`, the percent labeling is 13.4% under setting [1]; 26.5% under setting [2]; 36.4% under setting [3]; 25.3% under setting [4]; 27.9% under setting [5]; 29.8% under setting [6]. Also, the percent labeling stood at 14.1% under setting [7], 35% under setting [8], 27.6% under setting [9] and 49.3% under setting [10].

For `O=C(CCn1nc2ccccn2c1=O)NCCS`, the percent labeling is, setting by setting: under setting [11], 16.7%; under setting [1], 3.6%; under setting [2], 20%; under setting [3], 21.5%; under setting [4], 29.3%; under setting [5], 25.2%. The percent labeling is, setting by setting: under setting [6], 7.6%; under setting [12], 24.9%; under setting [7], 16.6%; under setting [8], 26.7%; under setting [9], 24.4%; under setting [10], 32.5%.

In the case of `O=C(Cc1coc(-c2ccccc2)n1)NCCS`, the percent labeling reads like this: under setting [11], 29.4%; under setting [1], 15.7%; under setting [2], 19.2%; under setting [3], 18.1%; under setting [4], 37.5%; under setting [5], 28.8%. Moreover, the percent labeling by setting is: under setting [6], 26.7%; under setting [12], 31.9%; under setting [7], 11.4%; under setting [8], 21.4%; under setting [9], 13.9%; under setting [10], 25.7%.

With `Cc1c(C(=O)NCCS)oc2ccc(Br)cc12`, the percent labeling came out at 49.9% under setting [11]; 15.7% under setting [1]; 14.2% under setting [2]; 10.2% under setting [3]; 10.8% under setting [4]; 9.6% under setting [5]. Further, the percent labeling reads like this: under setting [6], 20.1%; under setting [12], 24.5%; under setting [7], 12.6%; under setting [8], 14.7%; under setting [9], 6.6%; under setting [10], 12.2%.

For the molecule `O=C(CCS)NC1CC2(CCC2)Oc2ccc(Br)cc21` (stereo not given), the percent labeling under setting [1] turned out to be 11.7%; the percent labeling under setting [2] came to 20.8%; the percent labeling under setting [3] was 18.1%; the percent labeling under setting [4] is 10.3%; the percent labeling under setting [5] stood at 17%; the percent labeling under setting [6] is 25.2%. Besides, the percent labeling is, setting by setting: under setting [7], 11.5%; under setting [8], 17.8%; under setting [9], 4.8%; under setting [10], 25.5%.

In the case of `CCc1nc2ccc(Cl)cn2c1C(=O)NCCS`, the percent labeling under setting [11] turned out to be 29.8%; the percent labeling under setting [1] came to 26.3%; the percent labeling under setting [2] came out at 21.6%; the percent labeling under setting [3] was 13%; the percent labeling under setting [4] came to 17.2%; the percent labeling under setting [5] worked out at 17%. Besides, the percent labeling worked out at 42.9% under setting [6]; 36.5% under setting [12]; 16.1% under setting [7]; 16% under setting [8]; 11.3% under setting [9]; 26.3% under setting [10].

For the molecule `COc1c(C)cnc(CN(C)C(=O)CCS)c1C`, the percent labeling by setting is: under setting [1], 16.1%; under setting [2], 34.2%; under setting [3], 39.3%; under setting [4], 36.7%; under setting [5], 39.5%; under setting [6], 23.9%. In addition, the percent labeling came out at 13.7% under setting [7], 32.4% under setting [8], 28.3% under setting [9] and 58.2% under setting [10].

With `CC(C)(C(=O)NCCS)c1cccc(C(F)(F)F)n1`, the percent labeling was 42.6% under setting [11]; 19.1% under setting [1]; 31.4% under setting [2]; 18.7% under setting [3]; 37.7% under setting [4]; 29% under setting [5]. Further, the percent labeling reads like this: under setting [6], 32%; under setting [12], 39.1%; under setting [7], 27.1%; under setting [8], 26%; under setting [9], 26.9%; under setting [10], 37.2%.

In turn, `Cn1nc(-c2cccnc2)cc1C(=O)NCCS` yielded a percent labeling under setting [11] of 38.7%; a percent labeling under setting [1] of 32.3%; a percent labeling under setting [2] of 30.1%; a percent labeling under setting [3] of 24.2%; a percent labeling under setting [4] of 18%; a percent labeling under setting [5] of 29.7%. The percent labeling under setting [6] was 49.1%; the percent labeling under setting [12] came to 58.6%; the percent labeling under setting [7] was 23.6%; the percent labeling under setting [8] was 28.7%; the percent labeling under setting [9] turned out to be 26.9%; the percent labeling under setting [10] worked out at 47.4%.

For the molecule `Cc1oc(-c2cnn(C)c2)nc1C(=O)NCCS`, the percent labeling is, setting by setting: under setting [11], 45.7%; under setting [1], 18.6%; under setting [2], 23.6%; under setting [3], 15.9%; under setting [4], 39.3%; under setting [5], 19.7%. Further, the percent labeling runs as follows: under setting [6], 48%; under setting [12], 47%; under setting [7], 22.4%; under setting [8], 21.8%; under setting [9], 24.9%; under setting [10], 37.7%.

`O=C(CCNC(=O)c1cc(F)ccc1Br)NCCS` showed a percent labeling under setting [11] of 37.1%; a percent labeling under setting [1] of 14%; a percent labeling under setting [2] of 33.9%; a percent labeling under setting [3] of 23.6%; a percent labeling under setting [4] of 32.7%; a percent labeling under setting [5] of 31.6%. The percent labeling is 22.1% under setting [6]; 37.1% under setting [12]; 23% under setting [7]; 33.3% under setting [8]; 29.2% under setting [9]; 40.3% under setting [10].

In the case of `CC1(CNC(=O)CCS)OCCc2sccc21` (stereo not given), the percent labeling by setting is: under setting [1], 12.1%; under setting [2], 38%; under setting [3], 35.4%; under setting [4], 32.7%; under setting [5], 35%; under setting [6], 36.8%. Moreover, the percent labeling worked out at 16.5% under setting [7], 34.7% under setting [8], 34.3% under setting [9] and 54.8% under setting [10].

Take `Cn1nccc1C1=CC2CCC(C1)N2C(=O)CCS` (stereo not given): the percent labeling was 9.9% under setting [1]; 26.1% under setting [2]; 29% under setting [3]; 27.4% under setting [4]; 41% under setting [5]; 15.7% under setting [6]. In addition, the percent labeling was 12.2% under setting [7], 25.9% under setting [8], 24.4% under setting [9] and 41.6% under setting [10].

In turn, `O=C(NCCS)C1CC(O)CN1c1ccncn1` (stereo not given) displayed a percent labeling under setting [11] of 19.1%; a percent labeling under setting [1] of 9.9%; a percent labeling under setting [2] of 26.6%; a percent labeling under setting [3] of 22.7%; a percent labeling under setting [4] of 58.3%; a percent labeling under setting [5] of 27.3%. Besides, the percent labeling amounted to 9% under setting [6]; 30.6% under setting [12]; 23.5% under setting [7]; 31.1% under setting [8]; 28.9% under setting [9]; 30.5% under setting [10].

With `O=C(NCCS)c1cc(Cl)nn1-c1ncccc1Cl`, the percent labeling reads like this: under setting [11], 61.6%; under setting [1], 15.6%; under setting [2], 37.9%; under setting [3], 27.2%; under setting [4], 22.9%; under setting [5], 24.1%. For the same molecule, the percent labeling reads like this: under setting [6], 44.8%; under setting [12], 38.7%; under setting [7], 21.1%; under setting [8], 24.1%; under setting [9], 20.7%; under setting [10], 44.5%.

On to `COC(=O)c1conc1C1CCN(C(=O)CCS)CC1`, for which the percent labeling runs as follows: under setting [1], 18.4%; under setting [2], 40%; under setting [3], 41.4%; under setting [4], 43.9%; under setting [5], 40.3%; under setting [6], 35.6%. In addition, the percent labeling reads like this: under setting [7], 28.8%; under setting [8], 38%; under setting [9], 42.2%; under setting [10], 68.8%.

The molecule `CCN(CC)Cc1ccccc1CNC(=O)CCS` returned a percent labeling under setting [1] of 12.8%; a percent labeling under setting [2] of 46.3%; a percent labeling under setting [3] of 54.7%; a percent labeling under setting [4] of 28.3%; a percent labeling under setting [5] of 51.9%; a percent labeling under setting [6] of 22.1%. Moreover, the percent labeling was 17.7% under setting [7], 34.6% under setting [8], 34.2% under setting [9] and 78.2% under setting [10].

The molecule `Cc1cccc(-c2ccc(C(=O)NCCS)n2C)c1` came in with a percent labeling under setting [11] of 26.6%; a percent labeling under setting [1] of 12.1%; a percent labeling under setting [2] of 15.4%; a percent labeling under setting [3] of 6.9%; a percent labeling under setting [4] of 17.3%; a percent labeling under setting [5] of 10.6%. The molecule further showed a percent labeling under setting [6] of 71.6%; a percent labeling under setting [12] of 22.5%; a percent labeling under setting [7] of 11.3%; a percent labeling under setting [8] of 18.6%; a percent labeling under setting [9] of 8.4%; a percent labeling under setting [10] of 15.3%.

Turning to `CC(NC(=O)NCc1ccc(C(=O)NCCS)o1)c1cccs1` (stereo not given), the percent labeling runs as follows: under setting [11], 15.7%; under setting [1], 7.9%; under setting [2], 17.5%; under setting [3], 11.8%; under setting [4], 19.7%; under setting [5], 13.1%. The percent labeling runs as follows: under setting [6], 18.2%; under setting [12], 21.6%; under setting [7], 8.1%; under setting [8], 10.1%; under setting [9], 11%; under setting [10], 14.4%.

As for `O=C(Cc1cc(Cl)c2c(c1)OCCCO2)NCCS`, the percent labeling by setting is: under setting [11], 44.8%; under setting [1], 22.5%; under setting [2], 26%; under setting [3], 24.6%; under setting [4], 33.5%; under setting [5], 28.9%. For the same molecule, the percent labeling reads like this: under setting [6], 47.2%; under setting [12], 35.1%; under setting [7], 19.8%; under setting [8], 20.8%; under setting [9], 21.1%; under setting [10], 31.9%.

`N#Cc1cc(NC(=O)CCS)ccc1OC(F)F`: the percent labeling under setting [1] came to 17.8%; the percent labeling under setting [2] worked out at 22.7%; the percent labeling under setting [3] is 26.1%; the percent labeling under setting [4] turned out to be 17.7%; the percent labeling under setting [5] is 23.3%; the percent labeling under setting [6] is 29.5%. Also, the percent labeling runs as follows: under setting [7], 12.8%; under setting [8], 18.6%; under setting [9], 13.5%; under setting [10], 29.2%.

Consider `Cc1nc(C(=O)NCCS)c(-c2ccccc2)s1`, for which the percent labeling turned out to be 43.8% under setting [11]; 13.3% under setting [1]; 23.9% under setting [2]; 15.9% under setting [3]; 27.3% under setting [4]; 25% under setting [5]. In addition, the percent labeling stood at 24.2% under setting [6]; 32.9% under setting [12]; 14.6% under setting [7]; 15.4% under setting [8]; 14.3% under setting [9]; 29.5% under setting [10].

As to `O=C(CC1CCC(C(F)(F)F)CC1)NCCS` (stereo not given), the percent labeling is, setting by setting: under setting [11], 41.2%; under setting [1], 14.8%; under setting [2], 28.3%; under setting [3], 23%; under setting [4], 31%; under setting [5], 25.6%. Further, the percent labeling was 26.8% under setting [6]; 34.5% under setting [12]; 21.3% under setting [7]; 26.4% under setting [8]; 26.5% under setting [9]; 37.9% under setting [10].
